The list shows a part of the results.

For this assay, the system named is PfSIP2 AP2 domain 1 (GST-tagged). Put plainly: gcPBM binding intensity (ln(normalized median fluorescence intensity)); higher = stronger DNA binding. A digest of the protocol:
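An Agilent 4 × 180k array carrying primer-extended double-stranded 36-bp intergenic genomic probes and negative controls received GST-tagged P. falciparum DNA-binding domains expressed in E. coli, about 25 μg on average, for 1 h. The binding buffer contained 1× PBS, 1% milk, 0.2 mg/ml BSA, 0.5% salmon testes DNA and 0.03% Triton X-100. Binding intensity is the top Masliner-normalised natural-log median intensity across replicate spots of either probe orientation, read after Alexa488 anti-GST antibody staining and a 488 nm scan.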
For the sequence “TATGTTAATCCTATTTGTACATATAATCGAATTAAA [XGTACX_site7090]”, the “gcPBM binding intensity (ln)” value was determined as 6.92. In the case of “GAAAGGAAAAGTTGAACACACAAAGTAAACTATAAG [CACACA_site3535]” it was 6.7; in that of “TAATGAAGATATATAACACACAAAAGTTATAAATAT [CACACA_site6678]”, 6.95; in that of “ATATATAATAATATATGTACATAATATTTTTTTTTT [XGTACX_site1941]”, 6.98. In the case of “GCCATTAATTTATACACACACATTAAAATTTTTTAT [CACACA_site4575]” it was 7.58.

As for “GCTATAAATACAGACGCACACATATACATACATATA [CACACA_site3329]”, the “gcPBM binding intensity (ln)” value amounted to 7.56. In the case of “TATCCTACATTAACAAGTACAAAGAGATCCTACGTA [XGTACX_site4252]” it was 6.83. The figure for “AAGAATATATAGGACACACATACAATAATAAATATA [CACACA_site4119]” is 7.25; for “AACGCCACTTCAATGGCACACACCAATTATTTTTCA [CACACA_site1026]” it is 6.81. In the case of “TTTCTCCATATTAAAGTGCATTAATAACAAAAATAA [GTGCAC_site9934]” it was 8.82; in that of “TCATTCGAATAAATTGCACACATGACATCCGTTGTA [CACACA_site2587]”, 6.99. Turning to “ATATATATATTAATTACACACAAAAAAAAAAAAAAA [CACACA_site1165]”, the “gcPBM binding intensity (ln)” value is 8.31. “AAAAAAAAAAAAAATATACACACTAATATATTTTTT [CACACA_site815]”: the “gcPBM binding intensity (ln)” value is 7.18. With “GTATAGAGAAAAAACTGTACTTTATATAAATATTTA [XGTACX_site3972]”, the “gcPBM binding intensity (ln)” value is 6.85. Turning to “TATATACAGATATATACACACATATTTATATTTTAT [CACACA_site7734]”, the “gcPBM binding intensity (ln)” value came out at 6.98. As to “TATTAATAATATAATAGTACTTTCACTGTAAATTTA [XGTACX_site6419]”, the “gcPBM binding intensity (ln)” value worked out at 6.75. As for “TATTCTAATATTTATACACACATAACTTTGATAAAT [CACACA_site6418]”, the “gcPBM binding intensity (ln)” value was 7.08. The figure for “TATATATAGCATATTTCACACACACCGAATGAATAT [CACACA_site9182]” is 7.19; for “ATTAATTATTGTAATTGTACATTTTATATATATCCA [XGTACX_site2105]” it is 6.93.

Consider “TTTCTTGGGAGACATGCATGTACCAGAACAAAATAA [TGCATGCA_site272]”, for which the “gcPBM binding intensity (ln)” value is 7.23. Regarding “TTTATTTTTATGGTCACACATATTTTTAAAACTATA [CACACA_site4372]”, the “gcPBM binding intensity (ln)” value amounted to 7.22. The figure for “TACAAAATAGTTTACACACACATATATATACATATA [CACACA_site2615]” is 6.97; for “CACCCATAGAAACACACACACGCATAAAAAAAAAAA [CACACA_site1513]” it is 7.33.

On to “TAAAAACAAAAATGCACACATAATAAGCATATGTAT [CACACA_site3469]”, for which the “gcPBM binding intensity (ln)” value turned out to be 7.11. In the case of “AACAGGTCATAATTTACACACTATATATCTTATTAT [CACACA_site6461]”, the “gcPBM binding intensity (ln)” value worked out at 7.13. Consider “TTCATAAGAAGGAACTGTACATATTTTTCATTTTTT [XGTACX_site6770]”, for which the “gcPBM binding intensity (ln)” value turned out to be 6.97. The figure for “TGTATACCTTAATATACACACATACAGATATATATA [CACACA_site4860]” is 7.21; for “CGATTTTTTTTTTATTGTACTTGCTCGCATGCAATA [XGTACX_site4727]” it is 6.91. For the sequence “TTATATGTATATATATGTATATATATATATATATAG [TGCATGCA_negctrl_site461]”, the “gcPBM binding intensity (ln)” value was 7.57. On to “TACAATCTTTCATTATGTACTTAACATTTTTTCTGT [XGTACX_site8752]”, for which the “gcPBM binding intensity (ln)” value came out at 7.04. For the sequence “ATATGCATTTTTATACGTACATATTTCTTTTCGTTA [XGTACX_site1497]”, the “gcPBM binding intensity (ln)” value stood at 7.34. In the case of “ACAAAAGGGGAATACACACACATATATAAATAAATA [CACACA_site7111]” it was 7.11; in that of “CATATTTTTATGAGATGTACAATAAGAAATATGTAA [XGTACX_site2389]”, 7.19. On to “TTATCCTTGTAACAATGTACACATTATTTAATACTT [XGTACX_site1830]”, for which the “gcPBM binding intensity (ln)” value is 7.12. As to “TCGTGAATGATTTAAGTACACACCGGTATTTATTCA [CACACA_site1564]”, the “gcPBM binding intensity (ln)” value was 6.74. In the case of “GCATAAACGGATAATTAATTATATTATATTATATCA [CACACA_negctrl_site1519]”, the “gcPBM binding intensity (ln)” value is 6.9.

Take “ATTTATTTATATATATTATTTGTTTTAATTTACTTA [XGTACX_negctrl_site246]”: the “gcPBM binding intensity (ln)” value is 6.96. In the case of “TATTGTTGTCTTTACACATGCAACAAAAGAAGAAAA [TGCATGCA_site911]”, the “gcPBM binding intensity (ln)” value is 7.15.

With “CATACAGATGGACACACACACACACCCACAGACAAA [CACACA_site4431]”, the “gcPBM binding intensity (ln)” value was determined as 7.23. In the case of “TTTTTTTTTTGATGCACACACCTGAACGAGTTAATA [CACACA_site4329]”, the “gcPBM binding intensity (ln)” value was found to be 7.78. The figure for “TCGGGAGGGGGGAAGCGTACATATATAAAATTATTA [XGTACX_site4683]” is 9.36. Turning to “TATAACAAGTTATAAAGTACAAATGTTGAATTTTAT [XGTACX_site4673]”, the “gcPBM binding intensity (ln)” value was found to be 6.85. The figure for “TAAAAATTAATATAAACACACAAAAATTAATAAATA [CACACA_site381]” is 6.85; for “TATAGATACAGATACACACACACACCGACATATATA [CACACA_site5832]” it is 6.99. For “GAATGTATATTCATGTATTTATTATTATTATTATTA [XGTACX_negctrl_site156]”, the “gcPBM binding intensity (ln)” value was 7.47. For the sequence “ATATGGCTAAAAGTTGCACACACACTAATAAAAAAA [CACACA_site9082]”, the “gcPBM binding intensity (ln)” value amounted to 7.73. Take “TATGTATTTATATTAACACACAAAAAAAAAAAAAAA [CACACA_site5070]”: the “gcPBM binding intensity (ln)” value turned out to be 7.05. In the case of “ATTATTTTACTAAAAGATATTCCTTTTTTTTGTACT [CACACA_negctrl_site998]” it was 6.84; in that of “ATATGCCTAATAAAATGTACGTTTGTTTTATTTATT [XGTACX_site3833]”, 7.02. The figure for ATATATATATTTTGGTAGCACCTCCTTTTTTTTTTT is 8.73; for “ACAGTATCTGGTAGCTGTACGAGTCGTAGAGTGCAG [XGTACX_site2015]” it is 8.62; for “GGTAAGTACGACTTGACACACATACCCATATATATA [CACACA_site4837]” it is 7.36.

As to “GCGAAATATTATTATAGTATACAAATACTTCTATGA [CACACA_negctrl_site197]”, the “gcPBM binding intensity (ln)” value came out at 6.76. Turning to “GGTGTTAAAAAATACACACACAAAAAAAAAAAAAAA [CACACA_site138]”, the “gcPBM binding intensity (ln)” value came out at 7.04.

With “TTTTTTTAATTTGGTTGTACTTAAAAAAAAAACAGA [XGTACX_site5788]”, the “gcPBM binding intensity (ln)” value was 7.2. In the case of “TACCTAGGATTAAAGTGTCCACATAATTTAAATAAT [XGTACX_site6736]” it was 6.96; in that of “TTCTTCTGTTTTATTACACACCATTTTGTGGATACA [CACACA_site5181]”, 7.32. In the case of “TATATAAATAGACACACACACATATAAATATAAATA [CACACA_site6503]” it was 7.02. In the case of “TTTTTTATTATATAATTGTATATAAAATTATAATTT [GTGCAC_negctrl_site733]” it was 6.9; in that of “TAACTTGAATGGATATGTACATATATATATATATAT [XGTACX_site5990]”, 9.43; in that of “ATTCATCTATTTTGTAGTACTAAATATATATCTACT [XGTACX_site8790]”, 6.96. Consider “AATAAACATATATACACACACAAAAAAAAAAACATA [CACACA_site424]”, for which the “gcPBM binding intensity (ln)” value was 7.05. The figure for “TAGATGTATGTACATACACACATATATAAATAAATA [CACACA_site1788]” is 7.11.

For “ATATCCTTAAAAGATACACACATATGAATATTTTGT [CACACA_site3847]”, the “gcPBM binding intensity (ln)” value is 7. The figure for “TTTATACTTGTAAATGCACACATAAGATGCGACTAA [CACACA_site8662]” is 7.1.

With “GTTTGTAAATATTTTACACACATATATATATATATA [CACACA_site1075]”, the “gcPBM binding intensity (ln)” value turned out to be 9.2. “TTGGGGTATCTTCCTATGCACACTTGTTATGTACTA [CACACA_site831]”: the “gcPBM binding intensity (ln)” value was 7.36.

“ATTATAGACACGCGCACACACAACAAAAAAAAAAAA [CACACA_site9180]”: the “gcPBM binding intensity (ln)” value was determined as 7.47. “TTGATTACTAGAAATGCACACACTGATAAAATAAGG [CACACA_site4134]”: the “gcPBM binding intensity (ln)” value was found to be 8.35. In the case of “ATACTTTTAAATTGATGTACTTTATTTATAAGGTGA [XGTACX_site6746]” it was 7.03; in that of “TTGCTCACAAGAAGCACACAAAAAAAGAAAAAAAAA [CACACA_site4047]”, 6.83. Consider “TATAAAACGGATGAACAACAAATCATATGGCACAAA [TGCATGCA_negctrl_site608]”, for which the “gcPBM binding intensity (ln)” value amounted to 7.23.

With “TTCACAAAATATTATTGTACATTAAAATATTTATAT [XGTACX_site2535]”, the “gcPBM binding intensity (ln)” value amounted to 6.95. In the case of “TACATGATATATCACACACACATATAAATATATATA [CACACA_site2831]” it was 7.19. As to “GAAAATTTCTTATTTTGTACACACAATAAATATTCA [XGTACX_site3267]”, the “gcPBM binding intensity (ln)” value is 6.99. The figure for “GTTTTTTTATTTCATCGTACAAAAAAGAAGGCTTTA [XGTACX_site5291]” is 7.16; for “TTATATATTTATTTATGTACATATTTTTTTATTATA [XGTACX_site6115]” it is 7.22.

For “TAAATATGTATTCATACATGCACATATATATATATA [TGCATGCA_site584]”, the “gcPBM binding intensity (ln)” value was 9.63.

With “TAAAAAATAAAAAAAGCACACACATATATATATATA [CACACA_site8567]”, the “gcPBM binding intensity (ln)” value amounted to 9.41. In the case of “AAAATAAGAAATTGAAAAATTGAAAACAAAATTAAA [CACACA_negctrl_site1285]” it was 6.65; in that of “ACTACTCCATTAAGTAGTACACAAAAAAAAAAAATA [XGTACX_site7031]”, 7; in that of “TTACAAATGTTTTACACACACATAATTGTATCAATT [CACACA_site6147]”, 6.78. The figure for “TAATAAAACATATATACACACATTATAAATACATAT [CACACA_site5014]” is 7.02; for “TATAAATAAAAACACACACACATATATATATATATA [CACACA_site2319]” it is 9.4; for “CCATTTTAAATATGCACACAGATGCACTAACCCATT [CACACA_site1883]” it is 10.7.

As for “TATTTTTTTTTTTAATGTACAAACAAATTATGTTGG [XGTACX_site2873]”, the “gcPBM binding intensity (ln)” value came to 6.84. In the case of “ATTTTTTTTATGAGGTGTACTCATATAATAACTACA [XGTACX_site5074]” it was 7.67; in that of “TTTTCTAAAGTAAGTTAAGATATGCAAAAAAAAGAA [GTGCAC_negctrl_site242]”, 7.84.
